Experimental data reported in the RNAGym collection of RNA variant scans (doi:10.7554/elife.90254).
The source gives no read counts; variants with many changes may rest on few reads.

B1: LINE1-mini (parent)
chain: GGCAGAGCUCAACACAGCGUGGCAAAGUGGCUGUGGCUAGACUGCC

Variants of: B1
Test: self-cleavage, relative activity (ratio to wild type); higher = more cleavage; in vitro, sequencing; the parent is a self-cleaving ribozyme

Variant | self-cleavage
C3G A4C G21U | 0.14
A6U U9A U20C | 0.03
U9A A11C G35A | 0.01
G7C C10U G21U G33U C42G G44A | 0.01
A4C C15G A24C A26U A39U | 0.02
G19A A26U A41U | 0.4
A11G A24G G30C G35U | 0.02
G2C C3A A16G G27U C31A | 0.03
C8U U38C U43G | 0.05
C18A C42G C46A | 0.03
G5C C23U G27C C31U | 0.01
U28A G33C C37G G40C | 0.04
G2C A11C A24U A26C G35C | 0.01
C15A G29C G35U C45U | 0.14
A25U C37A G44U | 0.03
G2A A25C A26U | 0.29
C13A A14G C15U G29U C46A | 0.27
G19C A26U G36A | 0.07
G1U A25G A26C C31A G33A | 0.03
G1U C23U U38C | 1.32
C3G A6U G21U | 0.33
G5U C10G A12U C15U | 0.03
C8A C23A G33C G40C | 0.06
G2A A26C G27C | 0.33

Variant | self-cleavage
A4U C8U A12G G30A C31A C45A | 0
G5A G21U C42A | 0.26
G5U A14C G33U | 0.03
C8G A14U G30U U34A | 0.04
U20A A24U G33A | 0.02
A6C G21U A26G G29C C45G | 0.03
G29A U38C C46U | 0.24
A12C A16U G17U | 0.02
G22U G33A U38A | 0.21
C8A U9C G27U G29A G40U U43G | 0.59
G27C C31A G33U C37A | 0.02
G2C A4G G40C | 0.16
C15U G19U A41U C45G | 0.76
G1A G5U G44A | 0.08
G1A G5C G17U G27C C31A U38C | 0.03
G1U C8G U43C C45U | 0
C13U G17A U28A A41G C45G | 0.03
C3A G30U C37A G40A C46U | 0.37
C10U C15A U32G A41C C42A | 0.04
U20G A26C G36U | 0
C3G A11C C15U A16U G19C G27A G30C | 0.02
G33A G36U C37A | 0.02
U20A U34C G40U | 0.02
G17A U32G G40U | 0.04

Variant | self-cleavage
G22U G30U G40C | 0.1
G19A U20C G22C U28G A41C | 0
C13G G36U U38C A41C | 0.1
G2C C15A U28C U32C | 0.03
G5C G7A G19A U34G | 0.06
G5U G29U U34A C37U | 0.03
G5A A24C U34C A39C | 0.02
C8U U32C G35U | 0.08
A16C C18G G36A | 0.14
G21U G33U G35A | 0.06
A11U G29C G30U C31U | 0
G5U A6C G19A G44C | 0.11
C8A C23G G36A G40U | 0.39
C13A A26C C46G | 0.24
G1C C13A U20G U32A A39U | 0.02
U20A G27A U34A | 0.06
U9G C13U G17U A26C C37U G40U U43G C46A | 0.36
A12U G30C A41U G44U | 0.08
A11C C15A A24C A26U | 0
U9A G19A G30C | 0.06
C8G A25U G29U A39G C45U | 0.1
C10A A11U C15A | 0.03
C3A A4U G19C G36C U43A | 0.12
C15U G17A G22C G30U | 0.15

Variant | self-cleavage
A6G G17U G35A C46G | 0.02
G19C G33C C46G | 0.03
A4G U9C G30U C31A | 0.03
C3G U9A G19U | 0.17
A4U C13U G21A U43G | 0
G2U C10A U32C G36U | 0
G5C U9A C13U A26C C31G | 0.11
A12G A16C G22U U28G C37U A41C C42A | 0.12
U9A C10U G19C U28G U34C | 0.01
C3A U32C G40C | 0.09
A4C C13U U32G | 0.09
C23G A26U U38G | 0.03
A14G G17A C37G | 0.05
G7C G29U C46A | 0.22
G1A C3A A6G G35C | 0.69
G2C G44A C45G | 0.09
G2U C3U G5U G7U G21A A25U | 0.34
A14G C31A G36A A39G | 0.02
A26U C31A C37G | 0.03
G17U G22C G30A | 0.36
U20C C23U A24G | 0.13
C8G C13G G19A G21U C23A | 0.01
G2U C15A C42G | 0
C10A A12G U32C G33A G44A | 0.05

Variant | self-cleavage
C23G G33A A41U U43A | 0.15
G5C C15A G21U C31G C45G | 0.01
U9C C15U A16U G30A | 0.01
A4G G5A G27U G33C C42U C46A | 0.01
A14G G17U A24C U32G G36U | 0.09
A11U G22C U34A | 0
C23G A25C G27A G36A | 0.13
A25U G33U G36U | 0.04
G5U G27A A41C C45A | 0.02
C3A C13U G35U | 1.68
A12G G19U G21U U32C G40U C45A | 0.02
A6U G21C G36A G40C | 0.28
A11C U32G G33A | 0.02
G5C G7A A12C C23G C45U | 0.02
G1U C15A U34A | 0.07
G5C G29U C37G | 0.02
U28A U32C G36C | 0.01
A6U G30C U38G C46U | 0.02
G1C C15G A26C | 0.01
U9A A11G C23G G30U | 0.02
G7U G22U G36C | 0.15
G22A G29A C45A | 0.61
G7C A14U G17A U43A C45G | 0.04
U28G U32C U34A C42U | 0

Variant | self-cleavage
G2U C23A C37U | 0.01
C8U G22U G27A G36C G44C | 0.07
G7U C13U A25C A39U | 0.09
C3G A14C U28C A39U | 0.02
G2C U20C G33A G40C C42G | 0.02
C3U A6G G19C G30A | 0.1
C8U A16U U20C A24U C31U | 0.05
C15G A26U U28A | 0.04
G21C A24G G27C G40C G44C | 0.07
G2U C31U C46A | 0.04
G2U U32A U34A | 0.03
G5A G7C G33A C37G | 0.04
C3U G7A G44C | 0.28
G1A A26U C31U C42G | 0.04
G30A C31G G35A U43C | 0.02
C23U G30U C46A | 1.23
C13A A14C G19U | 0.22
G1U G2U C3G A4U A14C G19A U34G | 0.08
A4G A6C C8G C13A G27U U38G | 0.02
A6U C10A C15U C18G A24C U34G | 0.03
G5C C10U A11U C15U C46A | 0.02
G1U A26G U28G G36A | 0.07
G2C C8G A41C | 0
A6U A11C C15A A25G C31U U32G C37U A41U | 0

Variant | self-cleavage
A16U G19C G30U U32A C37G | 0
A6U A16C G27A C42G C46A | 0.1
C13G A16C G22A A25C | 0
G1U G7A C8A A16C | 0.06
C3G G44C C45A | 0.23
A25G G35C G36U | 0.02
A6C U9A C13A | 0.13
C10G A14G C46G | 0.02
A6U U20A G21C C23U | 0.49
G1U A4G C15G G27U A39U C46U | 0.02
G21U G36A A41C | 0.11
G27C G29U G30A G33U | 0.03
C23U A26U G33U C46A | 0.05
G5C G30U U43C | 0.15
G7A U34C C37A | 0.15
G22U A25G G30A A41U | 0.46
A11U C23A U28A A39G G44U | 0
G5C A41C C46U | 0.22
G1A G2C A6C G19A G33U | 0.04
G1C G5U G7C C13A | 0.05
G5C C8U C10A U32A | 0.02
A11U C15U A26C G40U | 0.04
A16U G33A C46G | 0.11
